Measurements from patent US11178870B2 (priority 2017, dated 2021).

Tests used:
[1] = system: Magnaporthe grisea; assay type: in vivo; conditions: class of control value, Table 7
[2] = system: Colletotrichum orbiculare; conditions: 250 ppm spray, 2.5 ml/pot; investigated 6 to 10 days after inoculation
[3] = system: Phytophthora infestans; assay type: in vivo; conditions: class of control value, Table 7

SMILES	Test A control value (blast on rice) [1]	Test H control value (anthracnose on cucumber) [2]	Test F control value (late blight on tomato) [3]
Cc1cnn(-c2cc(Cl)c(=O)n(C)c2-c2ccc(F)cc2F)c1Cl [Compound 410]	H (H shows the control value more than 50%)	H (H shows the control value more than 50%)	L (L shows the control value of 50% or less)
COc1ccc(-c2c(-n3cc(F)cn3)cc(Br)c(=O)n2CC(F)F)c(Br)c1 [Compound 450]	H (H shows the control value more than 50%)	H (H shows the control value more than 50%)	L (L shows the control value of 50% or less)
Cn1c(-c2ccc(F)cc2Cl)c(-n2cc(F)cn2)cc(Cl)c1=O [Compound 482]	H (H shows the control value more than 50%)	H (H shows the control value more than 50%)	L (L shows the control value of 50% or less)
CCn1c(-c2ccc(F)cc2F)c(-c2ccsc2Br)cc(Br)c1=O [Compound 499]	H (H shows the control value more than 50%)	H (H shows the control value more than 50%)	L (L shows the control value of 50% or less)
Cc1sc(Br)cc1-c1cc(Br)c(=O)n(CC(F)F)c1-c1c(F)cccc1F [Compound 494]	H (H shows the control value more than 50%)	H (H shows the control value more than 50%)	L (L shows the control value of 50% or less)
Cc1cnn(-c2ccc(=O)n(C)c2-c2ccc(F)cc2C)c1 [Compound 511]	L (L shows the control value of 50% or less)	L (L shows the control value of 50% or less)	L (L shows the control value of 50% or less)
CCn1c(-c2ccc(F)cc2F)c(-c2ccsc2Br)ccc1=O [Compound 500]	H (H shows the control value more than 50%)	L (L shows the control value of 50% or less)	L (L shows the control value of 50% or less)
Cc1cnn(-c2cc(Br)c(=O)n(N(C)C)c2-c2ccc(F)cc2F)c1Cl [Compound 470]	L (L shows the control value of 50% or less)	H (H shows the control value more than 50%)	L (L shows the control value of 50% or less)
